Experimental data from article PMC5062570 (Nature Communications, 2016).

Key:
[1] = molecular target: PF-7802-labelled proteins in ARPE-19 cells (Homo sapiens, UniProt P10412); settings: P10412 HIST1H1E Histone H1.4
[2] = molecular target: PF-7802-labelled proteins in ARPE-19 cells (Homo sapiens, UniProt P16403); settings: P16403 HIST1H1C Histone H1.2
[3] = molecular target: PF-7802-labelled proteins in ARPE-19 cells (Homo sapiens, UniProt P29401)
[4] = molecular target: PF-7802-labelled proteins in ARPE-19 cells (Homo sapiens, UniProt Q9H7M9); settings: protein C10orf54 Platelet receptor Gi24 (Q9H7M9)
[5] = molecular target: PF-7802-labelled proteins in ARPE-19 cells (Homo sapiens, UniProt P05787); settings: protein KRT8 Keratin, type II cytoskeletal 8 (P05787); one column per replicate
[6] = molecular target: PF-7802-labelled proteins in ARPE-19 cells (Homo sapiens, UniProt P51659); settings: protein HSD17B4 Peroxisomal multifunctional enzyme type 2 (P51659); one column per replicate
[7] = molecular target: PF-7802-labelled proteins in ARPE-19 cells (Homo sapiens, UniProt P83731); settings: protein RPL24 60S ribosomal protein L24, P83731
[8] = molecular target: PF-7802-labelled proteins in ARPE-19 cells (Homo sapiens, UniProt P07996); settings: THBS1 Thrombospondin-1 (P07996)
[9] = molecular target: PF-7802-labelled proteins in ARPE-19 cells (Homo sapiens, UniProt P18085); settings: protein ARF4 ADP-ribosylation factor 4 (P18085)
[10] = molecular target: PF-7802-labelled proteins in ARPE-19 cells (Homo sapiens, UniProt P13674); settings: protein P4HA1 Prolyl 4-hydroxylase subunit alpha-1 (P13674); replicates in separate columns
[11] = molecular target: PF-7802-labelled proteins in ARPE-19 cells (Homo sapiens, UniProt P78386); settings: protein KRT85 Keratin, type II cuticular Hb5 (P78386); replicates R1-R4 in separate columns
[12] = molecular target: PF-7802-labelled proteins in ARPE-19 cells (Homo sapiens, UniProt Q9NSB2); settings: protein KRT84 Keratin, type II cuticular Hb4 (Q9NSB2); one column per replicate
[13] = molecular target: PF-7802-labelled proteins in ARPE-19 cells (Homo sapiens, UniProt Q53TN4); settings: protein CYBRD1 Cytochrome b reductase 1 (Q53TN4)
[14] = molecular target: PF-7802-labelled proteins in ARPE-19 cells (Homo sapiens, UniProt O95831); settings: protein AIFM1 Apoptosis-inducing factor 1, mitochondrial (O95831)
[15] = molecular target: PF-7802-labelled proteins in ARPE-19 cells (Homo sapiens, UniProt O00469); settings: protein PLOD2 Procollagen-lysine,2-oxoglutarate 5-dioxygenase 2 (O00469); replicates in separate columns

Chain of UniProt P29401 (P29401 whole entry): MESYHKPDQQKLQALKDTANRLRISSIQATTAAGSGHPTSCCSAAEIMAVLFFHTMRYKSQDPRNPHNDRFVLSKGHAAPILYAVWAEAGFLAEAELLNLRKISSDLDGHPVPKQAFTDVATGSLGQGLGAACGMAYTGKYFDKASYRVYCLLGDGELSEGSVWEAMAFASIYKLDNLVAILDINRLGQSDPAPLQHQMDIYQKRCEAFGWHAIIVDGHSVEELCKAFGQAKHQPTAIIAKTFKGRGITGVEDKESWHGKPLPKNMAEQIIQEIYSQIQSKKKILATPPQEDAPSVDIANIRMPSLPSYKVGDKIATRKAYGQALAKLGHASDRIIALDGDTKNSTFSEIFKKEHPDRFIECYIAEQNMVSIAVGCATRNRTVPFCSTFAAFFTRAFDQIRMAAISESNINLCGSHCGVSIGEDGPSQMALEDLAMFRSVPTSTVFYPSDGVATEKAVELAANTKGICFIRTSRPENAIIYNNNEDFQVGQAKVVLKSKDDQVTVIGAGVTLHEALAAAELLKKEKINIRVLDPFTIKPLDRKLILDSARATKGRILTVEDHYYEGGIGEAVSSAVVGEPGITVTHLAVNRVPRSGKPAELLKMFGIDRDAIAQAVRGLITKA
Chain of UniProt P18085 (P18085 whole entry): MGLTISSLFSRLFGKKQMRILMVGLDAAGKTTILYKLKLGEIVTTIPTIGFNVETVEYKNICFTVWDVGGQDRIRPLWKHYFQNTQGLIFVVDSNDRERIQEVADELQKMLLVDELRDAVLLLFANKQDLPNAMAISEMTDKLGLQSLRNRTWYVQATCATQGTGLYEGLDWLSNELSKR
Chain of UniProt P05787 (P05787 whole entry): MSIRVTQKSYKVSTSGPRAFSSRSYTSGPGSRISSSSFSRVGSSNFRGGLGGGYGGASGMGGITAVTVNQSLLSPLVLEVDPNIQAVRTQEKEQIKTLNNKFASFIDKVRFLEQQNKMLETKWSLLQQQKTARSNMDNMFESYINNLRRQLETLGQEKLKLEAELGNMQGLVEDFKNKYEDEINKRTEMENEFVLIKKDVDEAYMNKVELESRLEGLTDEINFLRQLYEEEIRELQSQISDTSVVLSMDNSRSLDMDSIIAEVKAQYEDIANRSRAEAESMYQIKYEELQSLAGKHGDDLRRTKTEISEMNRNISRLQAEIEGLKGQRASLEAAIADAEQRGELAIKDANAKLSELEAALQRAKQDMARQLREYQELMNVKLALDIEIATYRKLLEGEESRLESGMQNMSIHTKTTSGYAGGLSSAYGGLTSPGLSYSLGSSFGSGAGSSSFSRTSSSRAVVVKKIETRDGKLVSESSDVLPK
Chain of UniProt P78386 (P78386 whole entry): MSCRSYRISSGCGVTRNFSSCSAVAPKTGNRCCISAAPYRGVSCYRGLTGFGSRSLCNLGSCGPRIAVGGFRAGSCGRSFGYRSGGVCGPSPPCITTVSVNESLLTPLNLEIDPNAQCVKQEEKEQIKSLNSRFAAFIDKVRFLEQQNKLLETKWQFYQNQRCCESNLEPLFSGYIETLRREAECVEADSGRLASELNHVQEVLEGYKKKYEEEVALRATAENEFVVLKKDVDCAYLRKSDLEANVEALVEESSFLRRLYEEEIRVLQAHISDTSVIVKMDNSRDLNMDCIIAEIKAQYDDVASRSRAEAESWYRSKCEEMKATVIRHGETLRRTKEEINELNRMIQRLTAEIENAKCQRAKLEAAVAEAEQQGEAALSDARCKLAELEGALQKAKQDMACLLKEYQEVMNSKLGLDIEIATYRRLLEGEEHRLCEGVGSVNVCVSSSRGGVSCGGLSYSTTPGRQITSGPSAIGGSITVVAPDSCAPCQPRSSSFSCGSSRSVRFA
Chain of UniProt P51659 (P51659 whole entry): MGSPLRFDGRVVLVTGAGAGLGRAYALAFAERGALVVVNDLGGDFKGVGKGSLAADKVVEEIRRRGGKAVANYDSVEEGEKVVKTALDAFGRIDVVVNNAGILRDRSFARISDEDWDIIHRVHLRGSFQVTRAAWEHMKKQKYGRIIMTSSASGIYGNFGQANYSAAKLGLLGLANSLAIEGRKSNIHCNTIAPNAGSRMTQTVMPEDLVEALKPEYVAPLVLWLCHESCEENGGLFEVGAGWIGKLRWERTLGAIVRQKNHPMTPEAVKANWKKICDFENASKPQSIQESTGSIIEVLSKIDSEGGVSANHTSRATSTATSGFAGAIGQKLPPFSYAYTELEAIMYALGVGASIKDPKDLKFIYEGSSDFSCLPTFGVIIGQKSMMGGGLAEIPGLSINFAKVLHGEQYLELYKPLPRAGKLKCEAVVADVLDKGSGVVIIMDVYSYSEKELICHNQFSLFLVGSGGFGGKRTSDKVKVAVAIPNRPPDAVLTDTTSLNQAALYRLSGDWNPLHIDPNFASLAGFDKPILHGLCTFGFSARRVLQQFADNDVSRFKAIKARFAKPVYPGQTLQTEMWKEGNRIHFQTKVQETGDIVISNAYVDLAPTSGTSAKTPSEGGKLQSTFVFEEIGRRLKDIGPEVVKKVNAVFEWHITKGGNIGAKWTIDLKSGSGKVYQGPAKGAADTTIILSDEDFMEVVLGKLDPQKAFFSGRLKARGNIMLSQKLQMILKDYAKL
Chain of UniProt P16403 (P16403 whole entry): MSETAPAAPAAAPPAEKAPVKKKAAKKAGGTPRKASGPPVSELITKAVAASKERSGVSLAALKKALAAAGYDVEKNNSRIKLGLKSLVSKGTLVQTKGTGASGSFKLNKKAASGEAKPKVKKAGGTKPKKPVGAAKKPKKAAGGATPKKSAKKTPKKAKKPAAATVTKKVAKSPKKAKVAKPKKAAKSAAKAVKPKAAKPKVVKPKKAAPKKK
Chain of UniProt Q53TN4 (Q53TN4 whole entry): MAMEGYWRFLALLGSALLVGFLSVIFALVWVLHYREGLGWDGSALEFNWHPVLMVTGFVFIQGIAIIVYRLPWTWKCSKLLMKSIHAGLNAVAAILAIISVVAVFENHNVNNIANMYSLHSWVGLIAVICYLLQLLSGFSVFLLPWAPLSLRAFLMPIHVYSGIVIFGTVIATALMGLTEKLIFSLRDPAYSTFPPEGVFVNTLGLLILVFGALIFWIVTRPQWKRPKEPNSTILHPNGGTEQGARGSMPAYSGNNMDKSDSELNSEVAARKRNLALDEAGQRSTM
Chain of UniProt Q9NSB2 (Q9NSB2 whole entry): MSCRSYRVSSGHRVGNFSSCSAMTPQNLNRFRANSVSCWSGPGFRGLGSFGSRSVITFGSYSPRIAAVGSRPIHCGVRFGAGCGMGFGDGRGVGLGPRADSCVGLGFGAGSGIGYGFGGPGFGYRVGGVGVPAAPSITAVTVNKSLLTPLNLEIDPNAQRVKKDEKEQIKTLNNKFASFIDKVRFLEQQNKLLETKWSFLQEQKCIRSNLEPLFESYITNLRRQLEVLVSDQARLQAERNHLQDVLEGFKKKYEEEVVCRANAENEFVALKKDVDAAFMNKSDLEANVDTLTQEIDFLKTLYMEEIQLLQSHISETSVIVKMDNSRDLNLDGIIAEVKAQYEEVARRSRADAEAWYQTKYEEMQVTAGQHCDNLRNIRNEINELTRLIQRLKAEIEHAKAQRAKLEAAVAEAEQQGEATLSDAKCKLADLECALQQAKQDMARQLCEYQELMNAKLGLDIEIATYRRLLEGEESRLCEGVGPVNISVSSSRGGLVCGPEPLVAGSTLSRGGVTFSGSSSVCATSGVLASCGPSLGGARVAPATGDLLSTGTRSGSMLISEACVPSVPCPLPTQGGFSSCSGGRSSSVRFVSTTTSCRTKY
Chain of UniProt P10412 (P10412 whole entry): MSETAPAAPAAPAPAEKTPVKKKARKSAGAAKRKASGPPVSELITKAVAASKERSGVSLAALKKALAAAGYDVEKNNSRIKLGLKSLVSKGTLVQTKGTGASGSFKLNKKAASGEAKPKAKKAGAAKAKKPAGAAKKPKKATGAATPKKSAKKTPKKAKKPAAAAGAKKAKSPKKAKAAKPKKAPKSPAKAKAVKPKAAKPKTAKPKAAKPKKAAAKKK

Row | Structure (SMILES) | SILAC ratio (DMSO/CP-108671) [1] | SILAC ratio (DMSO/CP-108671) [2] | SILAC ratio (DMSO/CP-108671) ([3]; P29401 TKT Transketolase) | Median SILAC Ratio (Heavy/Light) ([3]; TKT Transketolase (P29401)) | Median SILAC Ratio (Heavy/Light) [4] | Median SILAC Ratio (Heavy/Light) [5] | Median SILAC Ratio (Heavy/Light) [6] | Median SILAC Ratio (Heavy/Light) [7] | Median SILAC Ratio (Heavy/Light) [8] | Median SILAC Ratio (Heavy/Light) [9] | Median SILAC Ratio (Heavy/Light) [10] | Median SILAC Ratio (Heavy/Light) [11] | Median SILAC Ratio (Heavy/Light) [12] | Median SILAC Ratio (Heavy/Light) [13] | Median SILAC Ratio (Heavy/Light) [14] | Median SILAC Ratio (Heavy/Light) [15]
1 | CNC1CCN(C(=O)C[C@@H](Cc2ccccc2)C(=O)N[C@@H](CSC)C(=O)N[C@@H](CC2CCCCC2)[C@@H](O)C(=O)OC(C)C)CC1 [CP-108671, reference compound] | 0.89 | 0.89 | 0.49 | 2.025 | 0.9313 | 1.812 and 0.814 | 1.043 | 2.257 |  |  |  |  |  |  |  | 
2 | Cc1cc([C@H]2C[C@H]3[C@@H](C)SC(N)=N[C@@]3(c3ccc(F)cc3F)CO2)on1 [PF-9283] |  |  |  |  |  |  |  |  | 0.5961 | 1.4327 and 1.604 | 1.96 | 126.519 | 10.761 | 194.384 | 1.067 | 1.337 and 2.743 and 1.246

Several values for one entry are separate records, joined by “and”; a condition that tells them apart may be missing. Equal entries are not always repeated.
